The supplement of paper PMC10338343
± gives the standard deviation. The list shows a part of the results, in another mix than the full data.

System: MIWI (PIWIL1) piRISC loaded with L1MC piRNA (30 nt)
Experiment: pre-steady-state target cleavage rate (min^-1); MIWI and MILI are mouse PIWI proteins and EfPiwi is from a freshwater sponge; tags in brackets are library labels; higher = faster piRNA-guided slicing of the target
Conditions: guide: L1MC piRNA 5'p-UAACUAAAUACUAUGCAAGCUGUAGGUCCU
In short: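 Cleave-'n-Seq used a transcribed, DNA-blocked target RNA library at 0.1 nM and active affinity-purified piRISC with one synthetic guide at 1 nM, with or without 500 nM GTSF1 partner protein, in HEPES–potassium acetate buffer at 33 °C for 0–8 or 0–960 min. Uncleaved targets were sequenced and normalised to depth and to weakly complementary targets, and three trials were pooled with k3 capped at 0.0001 min^-1. The pre-steady-state cleavage rate was estimated by a burst-and-steady-state fit.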

[1] = auxiliary factor: 500 nM mouse GTSF1
[2] = auxiliary factor: none (no GTSF1)

UCCUGGAUGUGCUUGCAUAGUAUAUUAGUUA
pre-steady-state target cleavage rate [1]: 0.0878 ± 0.0097
pre-steady-state target cleavage rate [2]: 0.00721 ± 0.0034

UCCUGGAACACGAUGCAUAGUAUUUAGUUA
pre-steady-state target cleavage rate [1]: 0.0743 ± 0.013
pre-steady-state target cleavage rate [2]: 0.0029 ± 0.0024

UCCUCCUACAGCUUGCAUUGUAUUUAGAAA
pre-steady-state target cleavage rate [1]: 0.181 ± 0.027
pre-steady-state target cleavage rate [2]: 0.00243 ± 0.0023

UCCUGGAACAGCAUGCAUAGUAUUUUGUUA
pre-steady-state target cleavage rate [1]: 0.499 ± 0.039
pre-steady-state target cleavage rate [2]: 0.014 ± 0.0043

UCCACCUACAGCUUGCAUAGUUUUUAGUUA
pre-steady-state target cleavage rate [1]: 0.342 ± 0.025
pre-steady-state target cleavage rate [2]: 0.0227 ± 0.0043

AGGACCUAGAGCUUGCAUAGUUUUUAGUUA
pre-steady-state target cleavage rate [1]: 0.343 ± 0.023
pre-steady-state target cleavage rate [2]: 0.0238 ± 0.0061

UCCACCAACACCUUGCAUAGUAUUUAGUUA
pre-steady-state target cleavage rate [1]: 0.936 ± 0.044
pre-steady-state target cleavage rate [2]: 0.0528 ± 0.0084

UCCUGGAUGUGCUUGCAUAGUUUUUAGUAA
pre-steady-state target cleavage rate [1]: 0.0145 ± 0.0059
pre-steady-state target cleavage rate [2]: 0.00835 ± 0.0023

UCCUCCUACAGCUUGCAUAGUACUUAGUUA
pre-steady-state target cleavage rate [1]: 0.947 ± 0.033
pre-steady-state target cleavage rate [2]: 0.041 ± 0.0077

UCCUCCUACAGCUUGCAUAGUAAUUUAGUUA
pre-steady-state target cleavage rate [1]: 0.167 ± 0.02
pre-steady-state target cleavage rate [2]: 0.00932 ± 0.0027

UCGACGUACAGGUUGCAUAGUAUUUAGUUA
pre-steady-state target cleavage rate [1]: 1.21 ± 0.042
pre-steady-state target cleavage rate [2]: 0.0425 ± 0.0075

UCCACCUACUGCUUGCAUAGUAUUUAGAAA
pre-steady-state target cleavage rate [1]: 0.171 ± 0.03
pre-steady-state target cleavage rate [2]: 0.00434 ± 0.002

UCCUCCAUGAGCUUGCAUAGUAUUUAGUUA
pre-steady-state target cleavage rate [1]: 0.844 ± 0.03
pre-steady-state target cleavage rate [2]: 0.0503 ± 0.0084

UGGACCUACAGGUUGCAUAGUUUUUAGUUA
pre-steady-state target cleavage rate [1]: 0.233 ± 0.017
pre-steady-state target cleavage rate [2]: 0.0243 ± 0.0052

UCCUGGAACAGCUUGGAUUGUAUUUAGUUA
pre-steady-state target cleavage rate [1]: 0.113 ± 0.011
pre-steady-state target cleavage rate [2]: 0.00963 ± 0.003

AGGACCUACAGCUUGCAAAGAAUUUAGUUA
pre-steady-state target cleavage rate [1]: 0.37 ± 0.03
pre-steady-state target cleavage rate [2]: 0.0117 ± 0.0035

UCCUCCUUCAGCUUGGAUAGUAUUUAGUUA
pre-steady-state target cleavage rate [1]: 1.19 ± 0.041
pre-steady-state target cleavage rate [2]: 0.0358 ± 0.0057

UCCUCCUACAGCUUGGAUAGUAUUUAGUAA
pre-steady-state target cleavage rate [1]: 0.707 ± 0.045
pre-steady-state target cleavage rate [2]: 0.0186 ± 0.0033

UCCUGGAUGUGCUUGCAUAGUAUUUAGUUC [g2:g20:cont:t1C]
pre-steady-state target cleavage rate [1]: 0.254 ± 0.018
pre-steady-state target cleavage rate [2]: 0.0341 ± 0.008

UCCUGGAUCAGCUUGCAUAGUAUAAUGUAA
pre-steady-state target cleavage rate [1]: 0.0855 ± 0.016
pre-steady-state target cleavage rate [2]: 0.00393 ± 0.0033

UCCUGGAUCACCUUGCAUAGUAUUUAGUUA
pre-steady-state target cleavage rate [1]: 0.502 ± 0.028
pre-steady-state target cleavage rate [2]: 0.0141 ± 0.0042

UCCUGGAUCUGCUUGCUUAGUAUUUAGUUA
pre-steady-state target cleavage rate [1]: 0.366 ± 0.049
pre-steady-state target cleavage rate [2]: 0.0141 ± 0.0045

UCGACCUACAGCUUGCAUAGUAUAUUGUUA
pre-steady-state target cleavage rate [1]: 0.499 ± 0.028
pre-steady-state target cleavage rate [2]: 0.0241 ± 0.0063

UCCUGGAUGUGCUAGCAAAGUAUUUAGUUA
pre-steady-state target cleavage rate [1]: 0.0143 ± 0.0039
pre-steady-state target cleavage rate [2]: 0.00386 ± 0.0025

AGGACCUACAGGUUGCAUAGUAUUUAGUUA
pre-steady-state target cleavage rate [1]: 1.1 ± 0.085
pre-steady-state target cleavage rate [2]: 0.0899 ± 0.021

AGUACCUACAGCUUGCAUAGUAUUUAGUUA
pre-steady-state target cleavage rate [1]: 1.23 ± 0.064
pre-steady-state target cleavage rate [2]: 0.0796 ± 0.013

UCCACCUACAGCUUGCAUAGAUUUUAGUUA
pre-steady-state target cleavage rate [1]: 0.144 ± 0.018
pre-steady-state target cleavage rate [2]: 0.00423 ± 0.002

UCCUGGAUGAGCUUGCAUUGUAUUAAGUUA
pre-steady-state target cleavage rate [1]: 0.107 ± 0.015
pre-steady-state target cleavage rate [2]: 0.00884 ± 0.0036

UCGACCUACUGCUAGCAUAGUAUUUAGUUA
pre-steady-state target cleavage rate [1]: 1.25 ± 0.048
pre-steady-state target cleavage rate [2]: 0.025 ± 0.0048

UCCUGGAUGUGCUUGCAUGGUAUUUAGUUA
pre-steady-state target cleavage rate [1]: 0.209 ± 0.02
pre-steady-state target cleavage rate [2]: 0.0348 ± 0.0072

UCCUGGAUGUGCUUGAAUAGUAUUUAGUUA
pre-steady-state target cleavage rate [1]: 0.276 ± 0.02
pre-steady-state target cleavage rate [2]: 0.0159 ± 0.004

UCCUCCUAGAGCUUGCAUAGUAUUUUGUUA
pre-steady-state target cleavage rate [1]: 0.894 ± 0.12
pre-steady-state target cleavage rate [2]: 0.0203 ± 0.0034

UGGACCUACAGCUUGCAUAGUAUAUAGUUA
pre-steady-state target cleavage rate [1]: 0.892 ± 0.062
pre-steady-state target cleavage rate [2]: 0.0341 ± 0.0087

UCCUGGAACAGGCUUGCAUAGUAUUUAGUUA
pre-steady-state target cleavage rate [1]: 0.756 ± 0.029
pre-steady-state target cleavage rate [2]: 0.0527 ± 0.01

UCCUGGAUGAGCUUGCAUAGUAUAUUAGUUA
pre-steady-state target cleavage rate [1]: 0.464 ± 0.04
pre-steady-state target cleavage rate [2]: 0.00823 ± 0.004

UCCACCAACAGCUUGCUUAGUAUUUAGUUA
pre-steady-state target cleavage rate [1]: 1.31 ± 0.061
pre-steady-state target cleavage rate [2]: 0.026 ± 0.0061

UCCACCAACAGCUUGCAUAGUAUUUAGUAA
pre-steady-state target cleavage rate [1]: 0.644 ± 0.039
pre-steady-state target cleavage rate [2]: 0.0342 ± 0.0071

AGGACCUACACCUUGCAUAGUAUUUACAAA
pre-steady-state target cleavage rate [1]: 0.441 ± 0.059
pre-steady-state target cleavage rate [2]: 0.0127 ± 0.0031

UCCUGGAACAGCUUGGAUAGUAUUUAGAAA
pre-steady-state target cleavage rate [1]: 0.144 ± 0.027
pre-steady-state target cleavage rate [2]: 0.00668 ± 0.0027

UGGACCUACUCGUUGCAUAGUAUUUAGUAA
pre-steady-state target cleavage rate [1]: 0.221 ± 0.023
pre-steady-state target cleavage rate [2]: 0.00556 ± 0.0025

UCCACCAUGAGCUUGCAUAGUAUUUAGUUA
pre-steady-state target cleavage rate [1]: 0.944 ± 0.13
pre-steady-state target cleavage rate [2]: 0.0384 ± 0.0063

UCCUCCUAAAGCUUGCAUAGUAUUUAGUUA
pre-steady-state target cleavage rate [1]: 0.335 ± 0.04
pre-steady-state target cleavage rate [2]: 0.0256 ± 0.0043

UCCUCCUACAGCUUGGAUAGUAUUAAGUUA
pre-steady-state target cleavage rate [1]: 0.327 ± 0.026
pre-steady-state target cleavage rate [2]: 0.0118 ± 0.0022

UCGAGGAACAGCUUGCAUAGUAUUUACAAA
pre-steady-state target cleavage rate [1]: 0.517 ± 0.063
pre-steady-state target cleavage rate [2]: 0.00349 ± 0.0022

UCCUGGAACAGCUUGCAAAGUAUUUAGAUA
pre-steady-state target cleavage rate [1]: 0.343 ± 0.037
pre-steady-state target cleavage rate [2]: 0.0142 ± 0.0041

AGGACCUACAGCUUGCAGAGUAUUUAGUUA
pre-steady-state target cleavage rate [1]: 0.984 ± 0.07
pre-steady-state target cleavage rate [2]: 0.045 ± 0.012

UCCUGGUACUGCUUGCAAAGUAUUUAGUUA
pre-steady-state target cleavage rate [1]: 0.46 ± 0.036
pre-steady-state target cleavage rate [2]: 0.0221 ± 0.0052

UCCUGGAUGUGCUUGCAUAGUAUUUUGAUA
pre-steady-state target cleavage rate [1]: 0.0664 ± 0.016
pre-steady-state target cleavage rate [2]: 0.00851 ± 0.0028

UCCACCUACUCCUUGCAUAGUAUUUAGUUA
pre-steady-state target cleavage rate [1]: 0.991 ± 0.034
pre-steady-state target cleavage rate [2]: 0.043 ± 0.0071

UCCUGGUACAGGUUGGAUAGUAUUUAGUUA
pre-steady-state target cleavage rate [1]: 0.717 ± 0.096
pre-steady-state target cleavage rate [2]: 0.0166 ± 0.0038

UGGACCUACAGCUGCAUAGUAUUUAGUUA
pre-steady-state target cleavage rate [1]: 1.37 ± 0.11
pre-steady-state target cleavage rate [2]: 0.00982 ± 0.0031

UCCUCCUACAGUUUGCAUAGUAUUUAGUUA
pre-steady-state target cleavage rate [1]: 1.15 ± 0.039
pre-steady-state target cleavage rate [2]: 0.0529 ± 0.0094

UCCUGGAACAGCUCUGCAUAGUAUUUAGUUA
pre-steady-state target cleavage rate [1]: 1.18 ± 0.07
pre-steady-state target cleavage rate [2]: 0.024 ± 0.0067

UCCUGGAACAGCUUGCAUAGUAUUAAGAUA
pre-steady-state target cleavage rate [1]: 0.189 ± 0.028
pre-steady-state target cleavage rate [2]: 0.00498 ± 0.0025

UCCUGGAACAGCUGUGCAUAGUAUUUAGUUA
pre-steady-state target cleavage rate [1]: 0.954 ± 0.048
pre-steady-state target cleavage rate [2]: 0.0465 ± 0.012

UCCUCCUUGUGCUUGCAUAGUAUUUAGUAA
pre-steady-state target cleavage rate [1]: 0.343 ± 0.043
pre-steady-state target cleavage rate [2]: 0.0172 ± 0.003

UCCUGGAUCAGCUUGCAUAGUAUUAUCUUA
pre-steady-state target cleavage rate [1]: 0.0996 ± 0.019
pre-steady-state target cleavage rate [2]: 0.00511 ± 0.0021

UCGACCUACAGGUUGCAUAGUAUAUAGUUA
pre-steady-state target cleavage rate [1]: 0.675 ± 0.048
pre-steady-state target cleavage rate [2]: 0.0232 ± 0.0054

UCCACCUACACCUUGCAUAGUAUUUUGUUA
pre-steady-state target cleavage rate [1]: 0.551 ± 0.077
pre-steady-state target cleavage rate [2]: 0.0223 ± 0.0035

UCCUGGAUGACCUUGCAUAGUAUUUACUUA
pre-steady-state target cleavage rate [1]: 0.0931 ± 0.017
pre-steady-state target cleavage rate [2]: 0.00707 ± 0.0025

UCCAGCUAGAGCUUGCAUAGUAUUUAGUUA
pre-steady-state target cleavage rate [1]: 0.288 ± 0.033
pre-steady-state target cleavage rate [2]: 0.0158 ± 0.0021

UCCUGGAUGUGCUUGGAUAGUAUUUAGUAA
pre-steady-state target cleavage rate [1]: 0.298 ± 0.048
pre-steady-state target cleavage rate [2]: 0.0176 ± 0.0062

AGGACCUACAGCUUGCAAAGUAUAUAGUUA
pre-steady-state target cleavage rate [1]: 0.667 ± 0.049
pre-steady-state target cleavage rate [2]: 0.0238 ± 0.0054

UCCUGGAACAGCUUGCUUAGUAUUUAGAAA
pre-steady-state target cleavage rate [1]: 0.434 ± 0.073
pre-steady-state target cleavage rate [2]: 0.00637 ± 0.0032

UGGACCUACUGCUUGCAUAGUAUUUACUUA
pre-steady-state target cleavage rate [1]: 0.199 ± 0.016
pre-steady-state target cleavage rate [2]: 0.0355 ± 0.0061
